Test results from PMC8073056.
Results are given in words; binding and its absence hold for the method and conditions named. Binding seen in cells or lysates may run through a third protein. Some binding calls cover weakened binding; strength is not graded here.

The chains behind the UniProt entries cited, without tags or fusion partners.
UniProt O95271: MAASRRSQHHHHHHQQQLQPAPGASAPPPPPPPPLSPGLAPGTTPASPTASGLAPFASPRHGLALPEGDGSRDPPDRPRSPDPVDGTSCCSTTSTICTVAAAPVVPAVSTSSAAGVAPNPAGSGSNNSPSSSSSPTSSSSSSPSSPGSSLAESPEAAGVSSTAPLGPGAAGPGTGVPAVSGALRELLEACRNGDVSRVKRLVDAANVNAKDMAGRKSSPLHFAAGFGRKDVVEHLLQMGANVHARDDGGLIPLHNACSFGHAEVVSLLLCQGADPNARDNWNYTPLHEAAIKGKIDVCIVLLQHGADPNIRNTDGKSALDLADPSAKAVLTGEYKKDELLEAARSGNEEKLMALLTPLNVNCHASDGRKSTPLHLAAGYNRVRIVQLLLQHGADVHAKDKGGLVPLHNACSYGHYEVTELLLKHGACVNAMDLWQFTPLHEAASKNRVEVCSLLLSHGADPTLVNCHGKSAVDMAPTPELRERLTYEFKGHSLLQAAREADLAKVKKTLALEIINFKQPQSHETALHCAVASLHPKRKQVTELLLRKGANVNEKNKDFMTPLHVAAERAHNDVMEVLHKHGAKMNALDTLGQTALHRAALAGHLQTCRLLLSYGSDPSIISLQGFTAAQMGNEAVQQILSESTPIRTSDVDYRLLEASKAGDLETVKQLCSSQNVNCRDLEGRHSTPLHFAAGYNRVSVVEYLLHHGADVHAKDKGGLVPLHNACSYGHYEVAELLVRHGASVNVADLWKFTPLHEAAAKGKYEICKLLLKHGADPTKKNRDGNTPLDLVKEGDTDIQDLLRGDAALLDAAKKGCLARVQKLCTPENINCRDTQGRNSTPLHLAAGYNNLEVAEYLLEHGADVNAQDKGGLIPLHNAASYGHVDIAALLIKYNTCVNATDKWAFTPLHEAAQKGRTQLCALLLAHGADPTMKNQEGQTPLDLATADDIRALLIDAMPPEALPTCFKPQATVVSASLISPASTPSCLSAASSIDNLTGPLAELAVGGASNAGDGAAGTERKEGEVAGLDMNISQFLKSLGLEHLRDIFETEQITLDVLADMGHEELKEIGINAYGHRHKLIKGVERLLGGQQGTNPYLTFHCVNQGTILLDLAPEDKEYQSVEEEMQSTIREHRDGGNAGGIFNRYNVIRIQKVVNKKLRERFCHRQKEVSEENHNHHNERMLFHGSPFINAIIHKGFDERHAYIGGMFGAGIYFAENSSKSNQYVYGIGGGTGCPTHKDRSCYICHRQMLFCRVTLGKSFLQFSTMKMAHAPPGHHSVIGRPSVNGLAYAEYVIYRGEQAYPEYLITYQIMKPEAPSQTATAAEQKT

Tests used:
GFP-Arpin G218A (human) = GFP-Arpin G218A (human) (UniProt Q7Z6K5); assay: co-IP; GFP-Arpin WT or mutants transiently expressed in 293T; GFP-trap agarose beads; 50 mM KCl, 10 mM Hepes pH 7.7, 1 mM MgCl2, 1 mM EGTA, 1% Triton; 2 h at 4 °C; Western blot
GFP-Arpin G218D (human) = GFP-Arpin G218D (human) (UniProt Q7Z6K5); assay: as above
GFP-Arpin R213A (human) = GFP-Arpin R213A (human) (UniProt Q7Z6K5); assay: as above
GFP-Arpin R213D (human) = GFP-Arpin R213D (human) (UniProt Q7Z6K5); assay: as above
GFP-Arpin W224A (human) = GFP-Arpin W224A (human) (UniProt Q7Z6K5); assay: as above
GFP-Arpin WT (human) = GFP-Arpin WT (human) (UniProt Q7Z6K5); assay: as above
[1] = target: His-PC-Arpin (Protein C-tagged human Arpin, wild type) (human) (UniProt Q7Z6K5); assay: co-IP; PC-tagged Arpin WT or mutants transiently expressed in 293T; HPC4 (anti-PC) beads with 1 mM Ca2+ and 2 µM ADP HDP PARG inhibitor; 50 mM KCl, 10 mM Hepes pH 7.7, 1 mM MgCl2, 1 mM EGTA, 1% Triton; 1 h at 4 °C; Western blot
[2] = target: PC-tagged Arpin G189A (human) (UniProt Q7Z6K5); assay: as above
[3] = target: PC-tagged Arpin G8A (human) (UniProt Q7Z6K5); assay: as above

binding (GFP-Arpin G218A (human)): no binding
binding (GFP-Arpin G218D (human)): no binding
binding (GFP-Arpin R213A (human)): no binding
binding (GFP-Arpin R213D (human)): no binding
binding (GFP-Arpin W224A (human)): binds
binding (GFP-Arpin WT (human)): binds
binding [1]: binds
binding [2]: binds
binding [3]: binds
Substance: Tankyrase 1 (endogenous, 293 and 293T cells) (from UniProt O95271 1-1327) (enzyme)
